This is an account of results in PubChem BioAssay AID1346428 (National Center for Advancing Translational Sciences (NCATS), 2018).

“And” between values parts separate entries of the source, which are not always exact repeats. Equal entries are not always repeated. The whole screen tested about 48,000 compounds, of which about 1,200 (2.5%) were called active. Inconclusive results (about 2%) are left out.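 How the source made its calls: active means activation of at least 60% and not above a set upper limit (about 1 call in 100 departs from these limits); inconclusive means activation of 40% to 60%, or above that upper limit; inactive means activation under 40%.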 The list shows a part of the results.

Chain of UniProt O75388 (O75388 whole entry, looked up): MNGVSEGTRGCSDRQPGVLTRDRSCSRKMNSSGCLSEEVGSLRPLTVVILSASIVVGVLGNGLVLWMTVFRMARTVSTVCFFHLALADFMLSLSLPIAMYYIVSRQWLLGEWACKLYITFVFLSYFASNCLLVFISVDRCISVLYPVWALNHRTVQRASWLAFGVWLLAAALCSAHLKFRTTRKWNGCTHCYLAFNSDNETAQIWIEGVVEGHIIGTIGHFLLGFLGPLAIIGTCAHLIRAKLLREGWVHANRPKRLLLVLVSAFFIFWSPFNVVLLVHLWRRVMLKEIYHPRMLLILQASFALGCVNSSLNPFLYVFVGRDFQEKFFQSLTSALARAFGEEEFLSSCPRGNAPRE

The test has as its target Probable G-protein coupled receptor 32 (Homo sapiens) (UniProt O75388). Nature of the test: qHTS for Agonists of Human Resolvin D1 Receptor DRV1. Further: 0% is about no effect. Conditions: CHO-K1 GPR32 beta-arrestin PathHunter luminescence, 90 min; at 76.9 µM; hits give high values; zero percent set by DMSO-only wells. The essentials:
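PathHunter beta-arrestin recruitment in CHO-K1 cells stably expressing ProLink-tagged GPR32. Cells were exposed to compound for 90 min at 37 C, then chemiluminescence was read after 1 h detection at ambient temperature; DMSO served as basal control.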
(In general: Quantitative high-throughput screening tests each substance at several concentrations.)
`CC1=C(C(=O)Nc2cc(C)ccc2C)C2(CCCCCC2)OC1=O`: the activation was inactive: -13.6%.

Take `Cc1cc(C)c(S(=O)(=O)N2CCN(Cc3nc4ccc(C)cc4o3)CC2)c(C)c1`: the activation is inactive: 42.1%.

As for `CCOc1ccc(NC(=O)Cn2cc(C(=O)c3ccc(C)cc3)c(=O)c3cc4c(cc32)OCCO4)cc1`, the activation was inactive: 10.5%.

Regarding `O=C(O)CC(NS(=O)(=O)c1ccc(Br)s1)c1ccccc1` (centres undefined), the activation was inactive: 5.59%.

Regarding `O=C(NCCCN1CCN(c2ccccc2)CC1)c1nnc(Cc2ccc(F)cc2)o1`, the activation is inactive: -11.5%.

For the molecule `CCN1C(C(=O)c2ccccc2)=C(OC(=O)COc2ccccc2)c2ccccc2S1(=O)=O`, the activation was inactive: -74.4%.

Regarding `Nc1c(-c2nc(-c3ccccc3)cs2)c2ccccn2c1C(=O)c1ccc2c(c1)OCO2`, the activation was inactive: -3.73%.

For the molecule `COc1ccc(-n2c(C)nc3cc(C(=O)NC4CCCC4)ccc32)cc1`, the activation was inactive: 4.59%.

With `CC(C)OCCCN(C)C1CCN(S(=O)(=O)c2csc(C(N)=O)c2)CC1`, the activation was inactive: -48.1%.

With `CCOCCCNC(=O)Nc1cc(C(=O)NCc2ccc(C(C)C)cc2)ccc1N1CCCC1`, the activation is inactive: -27.9%.

Regarding `Cc1ccc(N2CCN(S(=O)(=O)c3ccc4oc(=O)c5ncn(C)c5c4c3)CC2)c(C)c1`, the activation was inactive: -3.38%.

Take `CC(=O)c1ccc(C(=O)N(Cc2cccnc2)c2nc3c(Cl)cccc3s2)cc1`: the activation was inactive: -30.7%.

As to `Cc1cccc(-c2nnc(SCC(=O)N3CCCc4ccccc43)o2)c1`, the activation is inactive: 14.3%.

For the molecule `CSc1cccc(NC(=O)Cn2nc(C)c3sc4ccccc4c3c2=O)c1`, the activation is inactive: -0.605%.

For the molecule `COc1cc2c(cc1OC)C(COc1ccc(F)cc1)N(C(=O)c1ccccc1F)CC2` (centres undefined), the activation was inactive: -6.16%.

Regarding `CCCCCCCCCCCCCCCC(=O)NCCO`, the activation was inactive: 17.6% and inactive: -0.646%.

As for `CCCCCCCCCCCCCCCC(=O)OC(CC(=O)O)C[N+](C)(C)C` (centres undefined), the activation was inactive: 3.8%.

For `Cc1cc(C)cc(NC(=O)C2CCN(c3cc(C)nc4c(-c5ccc(Cl)cc5)c(C)nn34)CC2)c1`, the activation is inactive: 5.13%.

In the case of `Cc1ccc(S(=O)(=O)c2nnn3c2nc(NCc2cccs2)c2sccc23)cc1C`, the activation is inactive: -1.64%.

Take `COC(=O)C(C)NC(=O)N1CCN(c2nnc(C)c3c(C)n(-c4ccc(Cl)cc4)nc23)CC1` (centres undefined): the activation is inactive: 7.2%.

Regarding `Cn1nnnc1SCCNCc1ccccc1OCc1ccc(Cl)cc1Cl`, the activation is inactive: 38.9%.

As to `CCOc1ccc(NC(=O)Cn2cc(C(=O)c3ccc(F)cc3)c(=O)c3cc4c(cc32)OCCO4)cc1`, the activation is inactive: 12.1%.

Regarding `COc1ccc(-c2cc(C(F)(F)F)n3nc(C(=O)O)c(Cl)c3n2)cc1OC`, the activation was inactive: -34%.

In the case of `Cc1ccc(-n2ncc(C(=O)N3CCN(Cc4ccccc4)CC3)c2C2CCN(C(=O)OC(C)(C)C)CC2)cc1`, the activation was inactive: -19.1%.

Turning to `CC(=O)c1cc(-c2ccccc2)n(CCC(=O)Nc2ccc(C(C)C)cc2)c1C`, the activation is inactive: -11.4%.

On to `Cc1ccc(-n2ccnc(NCCc3ccc(S(N)(=O)=O)cc3)c2=O)c(C)c1`, for which the activation was active: 80.5%.

Regarding `COc1ccc(NC(=O)Cn2cnc3ccc(S(=O)(=O)N4CCC(C)CC4)cc3c2=O)cc1Cl`, the activation is inactive: 26.7%.

For the molecule `CC(C)(C)OC(=O)N1CCC(c2c(C(=O)NCCN3CCCC3)cnn2-c2ccc(Cl)cc2)CC1`, the activation was inactive: -26.6%.

Take `CC(C)CC(NP(=O)(O)O[C@@H]1O[C@@H](C)[C@H](O)[C@@H](O)[C@H]1O)C(=O)NC(Cc1c[nH]c2ccccc12)C(=O)O` (some centres undefined): the activation was inactive: -6.7%.

Take `CCOc1ccc(/C=C/c2nc(C#N)c(NC3CCCCC3)o2)cc1`: the activation is inactive: -25%.

On to `Cc1oc(-c2ccc(C(=O)NCc3ccc(F)cc3)cc2)nc1CS(=O)c1ccccc1` (centres undefined), for which the activation is inactive: 49%.

For the molecule `Cc1cc(C)cc(C(=O)Nc2c(C(=O)Nc3ccccc3F)oc3ccccc23)c1`, the activation is inactive: 0.437%.

For the molecule `CC(=O)c1cc2c(cc1N/C(=N/S(=O)(=O)c1ccccc1)c1ccc(Cl)cc1)OCO2`, the activation is inactive: -23.3%.

Turning to `COc1ccccc1-c1nnc(SCC(N)=O)o1`, the activation was inactive: 9.85%.

Take `CCN(CC)CCNC(=O)c1ccc(-c2nc(CS(=O)(=O)c3ccc(C)cc3)c(C)o2)cc1`: the activation is inactive: -8.77%.

On to `CC(C)c1ccc(NC(c2nnc(-c3ccccc3)o2)c2ccc(F)cc2Cl)cc1` (centres undefined), for which the activation was inactive: -27.6%.

For `COc1ccccc1OCCn1c(C(C)Oc2ccccc2)nc2ccccc21` (centres undefined), the activation was inactive: -25.7%.

Consider `Cc1ccccc1NC(=O)CSc1nc2ccc(NC(=O)c3ccccc3)cc2s1`, for which the activation was inactive: 1.8%.

For `COc1ccc(NC(=O)C2=C(C)C(=O)OC23CCN(C(C)C)CC3)cc1Cl`, the activation was inactive: -25.7%.

Turning to `CC1CCC(Nc2ncnc3onc(-c4ccc(Cl)cc4)c23)CC1` (centres undefined), the activation was inactive: 27.9%.

For `COc1ccc(-c2coc3c2c(C)cc2oc(=O)c(C)c(C)c23)cc1`, the activation is inactive: 12.6%.

Take `CC(=O)OCc1cnc(C)c2oc(=O)c(C(=O)Nc3ccc(C)cc3Cl)cc12`: the activation was inactive: -7.51%.

Consider `Cc1ccccc1CN1C(=O)C(O)(CC(=O)c2ccccc2)c2cc(Cl)ccc21` (centres undefined), for which the activation was inactive: -9.11%.

`Cc1ccc(CNC(=O)c2oc3ccc(S(=O)(=O)N4CCC(C)CC4)cc3c2C)cc1`: the activation is inactive: -5.19%.

For `CCCCN1C(=O)CN(C2CCCCCC2)C(=O)C1c1ccc(OC(C)C)c(OC)c1` (centres undefined), the activation was inactive: -17.1%.

Regarding `Cc1cccc(OCC(=O)Nc2ccc3nc(Nc4cccc(C(F)(F)F)c4)cc(C)c3c2)c1`, the activation was active: 75.7%.

Consider `CCCCNC(=O)c1cc2c(=O)n3cccc(C)c3nc2s1`, for which the activation is inactive: 5.11%.

Turning to `COc1ccccc1CNC(=O)c1ccc2c(c1)N(Cc1cc(C)ccc1C)C(=O)c1ccccc1S2`, the activation was inactive: -24.4%.

As for `Brc1ccc([C@H]2CN3CCSC3=N2)cc1`, the activation is inactive: 0.537%.

Regarding `C=CC[C@H](N)C(=O)O`, the activation is inactive: 10.4%.

Consider `O=C(Cc1ccccc1)N(Cc1cccnc1)c1nc2ccc(Cl)cc2s1`, for which the activation was inactive: -21%.

With `CC(=O)c1cccc(NC(=O)CSc2nnc3ccc(-c4ccc(F)cc4)nn23)c1`, the activation is inactive: -4.86%.

Regarding `CCCOc1ccc(C(=O)Nc2ccc3oc(-c4ccc5ccccc5c4)nc3c2)cc1`, the activation is inactive: -10.4%.

Regarding `COc1ccc(NC(=O)c2ccc3c(SCC(=O)O)c4c(nc3c2)CCCC4)cc1OC`, the activation was inactive: -8.74%.

As to `CCOC(=O)c1cccc(-n2nnc3c(sc4nc(C)c(Br)c(C)c43)c2=O)c1`, the activation was inactive: -6.82%.

Take `O=C(Nc1ccc(Br)cc1F)c1cc(S(=O)(=O)NC2CCCC2)ccc1F`: the activation was inactive: -7.52%.

For the molecule `Cc1sc2ncn(CC(=O)Nc3ccc(F)cc3Cl)c(=O)c2c1S(=O)(=O)N1CCN(c2ncccn2)CC1`, the activation is inactive: -12.7%.

For `CCOC(=O)c1c(C)oc2ncnc(N3CCN(c4ccc(C)cc4C)CC3)c12`, the activation is inactive: -1.42%.

With `O=C(NCCc1ccccc1)c1cc(-c2ccc(Br)cc2)on1`, the activation was inactive: 3.85%.

On to `CCOC(=O)c1ccccc1NC(=O)Cn1c(=O)n(CCC(=O)NCc2ccccc2OC)c(=O)c2ccccc21`, for which the activation is inactive: -3.23%.

In the case of `Cn1c(=O)c2c(nc(Oc3ccc(C#N)cc3)n2Cc2ccc(Cl)cc2Cl)n(C)c1=O`, the activation was inactive: -8.05%.

For `COc1cccc(-c2nnc3n(Cc4ccc(C)cc4)c(=O)c4ccccc4n23)c1O`, the activation was inactive: 9.2%.

As for `CCN1CCN(c2csc3ccc(F)cc3c2=O)CC1`, the activation was inactive: -14.3%.

In the case of `CCCCN(Cc1cccs1)S(=O)(=O)c1cc(-c2cc(C)no2)ccc1C`, the activation is inactive: -20.3%.

`Cc1cccn2c(=O)cc(CSc3nnc(NC(=O)COc4ccc(F)cc4)s3)nc12`: the activation is inactive: -10.5%.

Consider `COc1cccc(CNC(=O)c2[nH]c3cc(C)ccc3c2Sc2ccccc2)c1`, for which the activation is inactive: -4.82%.

`CCOC(=O)c1c(S(=O)(=O)NCC(=O)N2CCN(c3cccc(Cl)c3)CC2)c(C)n(C)c1C`: the activation was inactive: -0.0016%.

With `COc1ccc(-c2nc3scc(CCNS(=O)(=O)c4c(C)noc4C)n3n2)cc1OC`, the activation was inactive: -15.7%.

Consider `Cc1ccc(C)c(Nc2nn3c(=O)c4ccc(C(=O)NCCC5=CCCCC5)cc4nc3s2)c1`, for which the activation was inactive: 48.2%.

Turning to `Cc1ccc(N2CC(C(=O)NCCS(=O)(=O)N3CCN(c4ccccc4)CC3)CC2=O)cc1C` (centres undefined), the activation was inactive: -15.4%.

For the molecule `COc1ccc(CCNS(=O)(=O)c2cc(-c3cc(C)no3)ccc2OC)cc1OC`, the activation was inactive: -10.6%.

In the case of `CC(C)c1ccc(-c2noc(SCC(=O)N3CCN(c4ccc(F)cc4)CC3)n2)cc1`, the activation was inactive: -15%.

For `CCOc1ccc(OCc2ccc(C(=O)Nc3cc(OC)c(OC)c(OC)c3)o2)cc1`, the activation is inactive: 9.43%.

On to `Cc1ccc(C)c(NC(=O)N(C)CCc2c(C)nn(C)c2C)c1`, for which the activation is inactive: -13.2%.

For the molecule `O=C(CCc1ccccc1)N(Cc1cccnc1)c1nc2c(F)cc(F)cc2s1`, the activation is inactive: -18.1%.

For `CCOc1ccc(-c2nc(CNC(=O)NC3CCCCC3)c(C)o2)cc1`, the activation is inactive: 2.93%.

Turning to `CCN(CC)CCNc1ncnc2c1cnn2-c1cc(Cl)ccc1C`, the activation was inactive: -3.63%.

Take `CCNc1nc(N)nc(Oc2ccc(OCC(=O)OC)nn2)n1`: the activation was inactive: -11.2%.

With `CCOc1ccccc1C(=O)Nc1cccc2ccc(C)nc12`, the activation was inactive: 0.782%.

As to `CCCN(C(=O)C(=O)Nc1ccc2nc3n(c(=O)c2c1)CCCCC3)c1ccc(OCC)cc1`, the activation is inactive: -7.77%.

`COc1cccc(CNC(=O)CSc2nc(=O)[nH]c3c2CCC3)c1`: the activation was inactive: -5.47%.

Take `COc1ccc(CCNc2nc3ccc(Cl)cc3n3cnnc23)cc1OC`: the activation is inactive: -8.81%.

As for `Cc1cccc2nc(-c3ccc(N(C)C)cc3)c(Nc3ccc4c(c3)OCO4)n12`, the activation is inactive: -22.2%.

For `CCc1nnc(NS(=O)(=O)c2ccc(N)cc2)s1`, the activation was inactive: -5.35%.
